In the supplement of paper PMC3334620:
Over roughly 33,000 sequences, “E-score (-0.5 to 0.5)” has its median near -0.054; the highest 2% begin near 0.35. The list shows a part of the results.

The sequences below were run against T1, Stb5 (UniProt P38699) (assay: PBM E-score (8-mer binding enrichment) (E-score (-0.5 to 0.5)); higher = stronger / more preferred TF binding; most listed sequences are background and not binding sites). Conditions: protein concentration: 200 nM; construct: GST-full length.
T1 sequence: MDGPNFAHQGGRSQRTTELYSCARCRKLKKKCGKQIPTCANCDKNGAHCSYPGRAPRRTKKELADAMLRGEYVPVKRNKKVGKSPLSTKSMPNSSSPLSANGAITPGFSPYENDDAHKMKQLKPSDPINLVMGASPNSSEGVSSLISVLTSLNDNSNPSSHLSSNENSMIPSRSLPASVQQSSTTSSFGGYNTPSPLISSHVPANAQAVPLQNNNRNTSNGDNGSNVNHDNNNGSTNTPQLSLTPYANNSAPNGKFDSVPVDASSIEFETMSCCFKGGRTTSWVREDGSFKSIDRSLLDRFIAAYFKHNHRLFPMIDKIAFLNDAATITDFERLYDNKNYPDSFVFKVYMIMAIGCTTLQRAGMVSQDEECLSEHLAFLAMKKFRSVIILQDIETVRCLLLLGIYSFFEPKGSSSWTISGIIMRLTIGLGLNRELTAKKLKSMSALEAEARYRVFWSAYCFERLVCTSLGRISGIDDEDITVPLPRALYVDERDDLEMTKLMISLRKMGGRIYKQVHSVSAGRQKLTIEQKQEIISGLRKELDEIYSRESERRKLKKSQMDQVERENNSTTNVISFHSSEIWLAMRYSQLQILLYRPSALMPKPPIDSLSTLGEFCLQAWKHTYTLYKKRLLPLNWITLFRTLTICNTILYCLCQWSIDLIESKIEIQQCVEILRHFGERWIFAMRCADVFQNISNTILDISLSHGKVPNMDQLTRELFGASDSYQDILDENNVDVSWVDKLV
Method in brief: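 E-scores (a modified Wilcoxon-Mann-Whitney statistic) were assigned by the Universal PBM Analysis Suite to every ungapped eight-base word pooled with its reverse complement. The input came from universal all-10-mer Agilent arrays made double-stranded by primer extension and probed with GST-tagged yeast transcription factors at about 100-200 nM. Fluorescent anti-GST detected bound protein, and masliner normalised the scans.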

| Sequence | PBM E-score |
| --- | --- |
| CGCATTTC | -0.0467 |
| ACATGTAC | -0.0042 |
| AATACTAC | -0.0787 |
| ACGCTATC | -0.0449 |
| AGTAGACG | -0.167 |
| GAAGTGTA | -0.112 |
| CCTCCGTC | 0.195 |
| GCGTGCCA | -0.0988 |
| ATACTATC | -0.0521 |
| GATTCCAA | -0.223 |
| CCCAGGAC | -0.0546 |
| CGTGTAAG | -0.102 |
| TATGACCA | 0.096 |
| CTGCGCCA | -0.138 |
| AACTTCGC | -0.133 |
| TGTCCGAA | 0.228 |
| AGGTTGAG | -0.261 |
| ATAATGAC | 0.159 |
| CTGTTTTC | -0.264 |
| AACCTCTA | 0.00722 |
| ACAGGAGC | -0.259 |
| CCAGCAGG | -0.146 |
| GTGCGGTA | 0.367 |
| AGCTCAAT | -0.0861 |
| AGTAGAGC | -0.115 |

| Sequence | PBM E-score |
| --- | --- |
| CTTACTCA | -0.0676 |
| AACTGGAG | -0.107 |
| ATAGAAAC | -0.0221 |
| CCGGTACC | 0.33 |
| AACGTATC | -0.238 |
| AGGTCTGC | -0.153 |
| GTAACGGA | 0.255 |
| AAGAGCTT | -0.192 |
| GTAAGGAC | 0.00921 |
| ACAGGACG | 0.0271 |
| GTTTAAAC | 0.34 |
| CGTGAGTC | 0.0257 |
| CAACACGC | -0.278 |
| GCTACGGA | 0.14 |
| CGCCCATC | -0.05 |
| AGACTTCG | -0.176 |
| ACCCCCAA | -0.209 |
| ACGCCTAA | 0.0208 |
| AAACCTCC | 0.112 |
| AGTTCTGC | -0.00914 |
| CGCGTACG | 0.0917 |
| ACTAATAA | -0.087 |
| ATGGGCTC | -0.198 |
| ACTCCGAT | 0.344 |
| CGATCTAG | -0.157 |

| Sequence | PBM E-score |
| --- | --- |
| AGACCTTG | -0.226 |
| CAGGCTGG | 0.0281 |
| CTAATCCC | 0.354 |
| AAGCACAC | -0.272 |
| CTATCGGA | 0.402 |
| ATCCCGGC | 0.28 |
| AAAGCGCG | 0.121 |
| AAGTCTGC | -0.211 |
| ATTTCCGA | 0.235 |
| TGTTTCAA | -0.048 |
| CTAGACCC | 0.11 |
| GCAATATA | 0.0864 |
| AACAAAGA | -0.05 |
| AAACAGCA | -0.133 |
| CTGTGCGA | -0.121 |
| CTGGAGTA | -0.211 |
| GGTCATAC | 0.281 |
| GCCCCTCA | -0.0728 |
| AACGTGAA | -0.183 |
| ATCAGCGA | 0.0945 |
| CTTATGGA | -0.0968 |
| ATGATGGA | -0.319 |
| ATCGATCG | -0.106 |
| AATAGCTC | -0.0735 |
| CGACACGC | 0.074 |

| Sequence | PBM E-score |
| --- | --- |
| CAAGCTTC | -0.27 |
| ACGGAACA | 0.107 |
| ACCGGCTG | 0.153 |
| CTTACTGC | 0.101 |
| GTTATCAA | -0.23 |
| GCGACGTA | -0.0805 |
| ACCGCGAA | 0.326 |
| CATACCCC | 0.235 |
| CCAATAAC | -0.0267 |
| ATCTAGAC | -0.154 |
| CTCGAAGA | -0.213 |
| GACTTCCA | -0.177 |
| CATCTCAA | -0.158 |
| GTCTGAGA | -0.148 |
| AAATCTCA | -0.261 |
| CAGAATAC | 0.0376 |
| TGACCGCA | 0.236 |
| CCCCGCAC | 0.236 |
| AATGTAAC | -0.0255 |
| AGCAAATC | -0.135 |
| GGAGAGGA | -0.264 |
| TAAATGTA | -0.239 |
| GAGGGTTA | -0.303 |
| AGGGTCAC | -0.193 |
| CCAATCCG | 0.0719 |

| Sequence | PBM E-score |
| --- | --- |
| AGATGTTA | 0.0114 |
| TGAATTCA | 0.0863 |
| GGACATCA | -0.065 |
| AAAAAGTT | -0.194 |
| AAACGCCT | -0.156 |
| CAGATACG | 0.112 |
| AGATATGA | -0.0199 |
| GATCGTGA | -0.0215 |
| CCACGTCA | -0.177 |
| CGCTCAGC | -0.0124 |
| CGAGTGAA | 0.00984 |
| CGTCTGCA | -0.0669 |
| GAAATGTA | -0.0161 |
| TTGCCCAA | -0.115 |
| GTCGAGAC | -0.0911 |
| CGAGCGAA | -0.0711 |
| CGTCGTAG | 0.0958 |
| CTGAACTA | -0.0792 |
| GGCGAGAA | -0.0862 |
| CCTTGACC | 0.103 |
| AGTCCGTG | 0.282 |
| AACTCATG | -0.163 |
| GAGGGTCC | 0.0444 |
| ACGGCACG | 0.0824 |
| TACTCACA | -0.284 |

| Sequence | PBM E-score |
| --- | --- |
| CGTATGTA | -0.0286 |
| AATTGCAG | -0.106 |
| ACCCAGCC | -0.351 |
| GCGCCGAA | 0.334 |
| CATGATCC | 0.15 |
| GGCGGTCA | 0.342 |
| TAGTTAAA | 0.14 |
| CCTACCTA | -0.151 |
| AAAGCCGA | 0.341 |
| CCGTGGGA | -0.0115 |
| CAGAGCCC | -0.126 |
| AGCTAAGA | -0.0255 |
| GAGTCAAA | 0.0696 |
| ACTGTTGC | -0.0489 |
| GCCGACCC | 0.267 |
| ACGTCATC | -0.115 |
| CATTCTCG | -0.0441 |
| CCATGGGC | -0.0701 |
| ATTGATAC | 0.0533 |
| CACATAAA | 0.163 |
| CAACACTC | -0.0258 |
| GGTGTGAC | 0.167 |
| GCCGTGTA | 0.0589 |
| CGCCCATA | 0.139 |
| TAGTCAGA | -0.116 |

| Sequence | PBM E-score |
| --- | --- |
| ACCTCTAA | 0.115 |
| AGGCTGGG | -0.313 |
| CGATATTC | 0.192 |
| AATACATG | -0.044 |
| ACGACCAG | -0.164 |
| TGTATTAA | -0.0825 |
| CTGTGGTC | -0.0894 |
| AGCATTAA | -0.212 |
| ACGCGCGC | 0.0521 |
| AAACCCCA | 0.0234 |
| CTATCAGA | 0.00467 |
| CGTCGTCA | -0.025 |
| TCGAACCA | -0.173 |
| GCTCGTAC | -0.0915 |
| GGCGGTTA | 0.158 |
| ACCGATTC | 0.216 |
| GCAAGAGA | -0.214 |
| AGTCAGGC | -0.0565 |
| CATCTGAA | -0.109 |
| GAATCATC | -0.0556 |
| CGAAACTC | -0.0284 |
| ATAGACTG | 0.0118 |
